Measurements published in PubChem BioAssay AID485294 (National Center for Advancing Translational Sciences (NCATS), 2010).
About 150 (0.041%) of roughly 370,000 compounds were called active. The inconclusive results got no clear call from the source; some entries with a clear call stand among them for comparison. Calls follow the shape of the dose curve; as a rule, active = well fitted inhibition curve with a large enough effect; inconclusive = small, poorly fitted or top-dose-only effect; inactive = flat fitted curve, though single readings scatter. Potencies of inconclusive entries are left out as doubtful fits.

What follows are compounds tested against Beta-lactamase (Escherichia coli (strain K12)) (UniProt P00811) (assay: qHTS Inhibitors of AmpC Beta-Lactamase (assay with detergent)). Details: AmpC hydrolysis of nitrocefin, absorbance 480 nm, 0.01% Triton; activity change, negative = inhibition: at 114 µM (top of the series).
Sequence of UniProt P00811 (P00811 whole entry, looked up): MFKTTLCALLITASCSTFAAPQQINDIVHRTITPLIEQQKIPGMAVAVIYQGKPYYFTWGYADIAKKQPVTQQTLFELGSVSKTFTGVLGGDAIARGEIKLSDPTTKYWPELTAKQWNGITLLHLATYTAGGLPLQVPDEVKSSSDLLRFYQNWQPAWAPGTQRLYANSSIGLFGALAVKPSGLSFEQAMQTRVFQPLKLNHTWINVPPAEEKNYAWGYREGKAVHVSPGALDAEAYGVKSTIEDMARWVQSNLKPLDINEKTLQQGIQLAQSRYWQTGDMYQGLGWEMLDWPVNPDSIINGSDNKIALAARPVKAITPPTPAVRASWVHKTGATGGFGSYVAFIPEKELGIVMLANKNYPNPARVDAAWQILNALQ
Procedure, shortened: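 20 mM phosphate pH 7.0 + 0.01% (detergent screen) or 0.0001% Triton X-100; 5.3 nM AmpC reagent; cpd preinc 15 min RT; nitrocefin (800 uM stock) to start; A480 q20 s × 4 min; Activity was normalised to no-enzyme and no-compound control wells.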
Also: nearly all actives have a fitted effect of over 25% in size.
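For activity change, negative = inhibition in this document: 0% = no-compound wells and -100% = no-enzyme wells.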
Potency is read from the fitted curve at half-maximal effect; tags tell the direction and shape of the fitted curve.

SMILES | Potency | activity change, negative = inhibition
CC(=O)NC(Cc1cccc(C)c1)C(=O)NC1CCN(C(=O)c2ccc([N+](=O)[O-])cc2)CC1 (stereo not given) | inconclusive [inhibitor, full curve, poor fit] | –
CC(C)(C)n1nnnc1C(c1cccc(C#N)c1)N1CCCc2ccccc21 (stereo not given) | inconclusive [inhibitor, partial curve, poor fit] | –
CCn1c(=O)c(=O)[nH]c2cc(C(=O)N3CCN(c4ccccc4F)CC3)ccc21 | inconclusive [inhibitor, partial curve] | –
CC(=O)c1ccc(-c2ccc(C(=O)NCC3CCCO3)o2)cc1 (stereo not given) | inconclusive [inhibitor, full curve, poor fit] | –
Cc1cc(Nc2cccc(Cl)c2)nc(N2CCOCC2)n1 | – | inactive: -2.2%
Cc1cccc(C(=O)NC(=S)NNC(=O)Cc2ccccc2)c1 | inconclusive [inhibitor, single point] | –
Cc1ccc(C(=O)NCc2ccncc2)cc1S(=O)(=O)N1CCOCC1 | inconclusive [inhibitor, full curve, poor fit] | –
CC(C)(C)C(=O)Nc1cccc(S(=O)(=O)NC2=NCCC2)c1 | inconclusive [inhibitor, full curve] | –
Cc1cccc(C)c1NC(=O)Cn1cc(C(=O)C2CC2)c2ccccc21 | – | inactive: 23%
COc1cccc(C(=O)Nc2nnc(S(=O)(=O)N3CCCc4ccccc43)s2)c1 | – | inactive: 16.9%
CC1CCN(C(=O)CCN2C(=O)C3C4C=CC(C4)C3C2=O)CC1 (stereo not given) | inconclusive [inhibitor, single point] | –
COc1ccc(-c2ccc(=O)n(CC(=O)Nc3cc(OC)ccc3OC)n2)cc1 | – | inactive: 1.44%
CCCCNC(=S)NNC(=O)c1ccoc1C | inconclusive [inhibitor, single point] | –
CCCCN(c1ccccc1)S(=O)(=O)c1cccc(C(=O)O)c1 | – | inactive: 3.97%
O=c1[nH]c(C2CCCN(S(=O)(=O)c3ccccc3)C2)nc2c1nnn2Cc1ccccc1Br (stereo not given) | inconclusive [inhibitor, full curve] | –
CCOC(=O)c1cccc(NC(=O)Nc2c(C)n(C)n(-c3ccccc3)c2=O)c1 | – | inactive: 5.6%
COc1ccc(C(=O)NC(=S)N2CCCCC2c2cccnc2)cc1OC (stereo not given) | inconclusive [inhibitor, full curve, poor fit] | –
COc1cc(NC(=O)Cc2noc3ccccc23)cc(OC)c1OC | – | inactive: 4.74%
O=C1c2cccc3c(O)ccc(c23)C(=O)N1Cc1ccco1 | – | inactive: 1.18%
CCSc1nc(-c2ccccc2)cc(=O)[nH]1 | – | inactive: 2.18%
O=C(OCn1cncn1)c1ccc(Cl)cc1Cl | inconclusive [inhibitor, single point] | –
COc1ccc(C2NC(=O)c3ccccc3O2)cc1 (stereo not given) | – | inactive: 0.937%

SMILES | Potency | activity change, negative = inhibition
COc1ccc(CNC(=O)Cn2c(=O)n(CCC(=O)N3CCCCC3)c(=O)c3sccc32)cc1 | inconclusive [inhibitor, full curve, poor fit] | –
CC(C)C[C@H](NC(=O)N1CCn2c1nc1ccccc12)C(=O)NCc1ccc2c(c1)OCO2 | inconclusive [inhibitor, full curve] | –
CCOC(=O)Cn1c(=O)n(C2CCCC2)c(=O)c2ccccc21 | inconclusive [inhibitor, full curve, poor fit] | –
CCCCC(=O)N1CCN(c2nc3ccc(OCC)cc3s2)CC1 | – | inactive: -14.1%
CCn1cc(C(=O)NCCC(C)C)c(=O)c2cc(F)c(N3CCN(C(=O)c4ccco4)CC3)cc21 | inconclusive [inhibitor, full curve, poor fit] | –
O=C1NCCCc2c1oc1cc(Br)c(O)c(Br)c21 | – | inactive: -0.323%
COc1ccc(Cl)cc1NC(=O)CSC1=NN2CCCC(=O)N=C2S1 | inconclusive [inhibitor, full curve, poor fit] | –
Cc1nc2cc(NC(=O)N(C)c3ccc4ccccc4c3)ccc2o1 | inconclusive [inhibitor, full curve, poor fit] | –
CCOc1ccc(-n2ccnc(SCC(=O)Nc3ccc(CC)cc3)c2=O)cc1 | inconclusive [inhibitor, single point] | –
Cc1ccc(C)c(N2CCN(S(=O)(=O)c3cc4c(cc3C)NC(=O)CO4)CC2)c1 | inconclusive [inhibitor, full curve] | –
CCOC(=O)C1=C(c2ccccc2)NC(=O)NC1c1cc(OCC)c(O)c([N+](=O)[O-])c1 (stereo not given) | inconclusive [inhibitor, partial curve, poor fit] | –
COc1ccc(-c2cc(C(=O)N3CCN(c4ccccn4)CC3)c3ccccc3n2)cc1 | – | inactive: 0.648%
N=C1C(c2nc3ccccc3s2)=C(O)CN1NC(=O)c1c[nH]c2ccccc12 | – | inactive: 0.473%
Cc1cccc(-c2nc3c(c(SCC(N)=O)n2)CCCC3)c1 | inconclusive [inhibitor, partial curve, poor fit] | –
CCN1CCN(c2ccc(S(=O)(=O)N3CCOCC3)cc2NC(=O)CCSC)CC1 | inconclusive [inhibitor, full curve, poor fit] | –
O=C(CSc1nc(=O)n2ccccc2n1)N1N=C(c2cccs2)CC1c1ccc(F)cc1 (stereo not given) | inconclusive [inhibitor, full curve, poor fit] | –
Nc1ncnc2c1ncn2C1CCC(CO)C(O)C1 (stereo not given) | inconclusive [inhibitor, partial curve] | –
COc1ccc(CNC(=O)C(NC(C)=O)C(=O)Nc2ccc(C(C)C)cc2)cc1 (stereo not given) | inconclusive [inhibitor, full curve] | –
CCC1CCC(N2CCN(c3cccc(OC)c3)CC2)CC1 (stereo not given) | inconclusive [inhibitor, full curve, poor fit] | –
CCOC(=O)CN(C(=O)CSc1nnc(C)n1-c1ccccc1)c1cccc([N+](=O)[O-])c1 | inconclusive [inhibitor, partial curve, poor fit] | –
COc1ccc(C(=O)NC(=S)NCc2cccnc2)cc1[N+](=O)[O-] | inconclusive [inhibitor, partial curve, poor fit] | –
CCc1cc[n+](/C(C(=S)Nc2cccc(C)c2)=C(/[O-])c2ccc(C)c([N+](=O)[O-])c2)cc1 | inconclusive [inhibitor, full curve, poor fit] | –

SMILES | Potency | activity change, negative = inhibition
CN1CCc2c(sc3nc(NN)n(Cc4ccccc4)c(=O)c23)C1 | inconclusive [inhibitor, single point] | –
COc1ccc(/C=C/c2nc(C#N)c(NCCN(C)C)o2)cc1OC | inconclusive [inhibitor, partial curve, poor fit] | –
O=C1NC(c2ccccc2Cl)Nc2ccccc21 (stereo not given) | inconclusive [inhibitor, single point] | –
COc1ccc(N2CC(C(=O)Nc3nc(-c4ccccc4)c(C(C)=O)s3)CC2=O)c(OC)c1 (stereo not given) | inconclusive [inhibitor, full curve, poor fit] | –
COc1ccc(C(C(=O)NC2CCCC2)N(CCN(C)C)C(=O)c2snc(C(N)=O)c2N)cc1 (stereo not given) | inconclusive [inhibitor, partial curve, poor fit] | –
Cc1ccc(N2CC(NC(=O)N3CCN(C(=O)c4ccco4)CC3)CC2=O)cc1 (stereo not given) | inconclusive [inhibitor, full curve, poor fit] | –
O=S(=O)(NCc1ccncc1)c1ccccc1 | – | inactive: -22.2%
COc1ccc(-c2nc(CSCC(=O)NC3CC3)c(C)o2)cc1OC | inconclusive [inhibitor, full curve, poor fit] | –
COC(=O)c1nn(-c2ccc(OC)cc2)c(=O)cc1Sc1ccc(C)cc1 | inconclusive [inhibitor, full curve, poor fit] | –
O=C(CCN1C(=O)/C(=C\C=C\c2ccccc2)SC1=S)Nc1cccc(C(=O)O)c1 | inconclusive [inhibitor, full curve, poor fit] | –
CC1CCc2c(C(=O)Oc3cccc(-n4cnnn4)c3)csc2C1 (stereo not given) | inconclusive [inhibitor, full curve, poor fit] | –
CCc1cccc(NC(=O)CCc2nc(-c3cccs3)no2)c1 | inconclusive [inhibitor, full curve] | –
O=C(O)c1cc(-c2ccc(C(F)(F)F)cc2)nc2n[nH]c(-c3ccccc3)c12 | – | inactive: 19.2%
Clc1ccccc1-c1ccc2ncnc(NCc3ccc4c(c3)OCO4)c2c1 | inconclusive [inhibitor, full curve, poor fit] | –
CC(C)[C@H]1C(=O)Nc2ccccc2N1C(=O)N[C@@H](Cc1ccccc1)C(=O)N[C@H](Cc1ccccc1)C(=O)O | inconclusive [inhibitor, partial curve, poor fit] | –
COC(=O)c1ccc(C(=O)N=c2sccn2C)cc1 | inconclusive [inhibitor, full curve, poor fit] | –
CC1=C(C#N)C(/C=N/OCc2ccc(F)cc2Cl)CC(=O)N1 (stereo not given) | inconclusive [inhibitor, single point] | –
C/C(=N\NC(=O)c1cc(Br)ccc1O)c1ccccn1 | inconclusive [inhibitor, full curve, poor fit] | –
CCCn1nnnc1NC(=O)CSc1ccc(Cl)cc1 | inconclusive [inhibitor, full curve, poor fit] | –
CC(=O)Nc1cc(Br)ccc1O | – | inactive: 1.51%
CC1(C)CC(=O)C2=C(C1)Oc1ncn(Cc3ccco3)c(=N)c1C2c1ccccc1 (stereo not given) | inconclusive [inhibitor, partial curve] | –
